# Measured values: the RNAGym collection of RNA variant scans (doi:10.7554/elife.90254)
# The source gives no read counts; variants with many changes may rest on few reads.
# B1: LINE1-mini (parent)
# chain: GGCAGAGCUCAACACAGCGUGGCAAAGUGGCUGUGGCUAGACUGCC
# Variants of: B1
# Assay: self-cleavage, relative activity (ratio to wild type); higher = more cleavage; in vitro, sequencing; the parent is a self-cleaving ribozyme
row,Variant,self-cleavage
1,GUCAGAGCGCAACAGAGCGUGGCAAAGUGGCUGUGGCUAGACUGCC [G2U U9G C15G],0.02
2,GUCAGAGCGCAACAUAGCGUGGCAAAGUAGCUGUGGCUAGACUGCC [G2U U9G C15U G29A],0.05
3,GUCAGAGCGCAACACAGCGUGGCAAAGUGGCUGUGGCUAGAUUGCC [G2U U9G C42U],0.02
4,GUCAGAGCGCAACACAGCAUGGCAAAGUGGCUGUGGCAAGAAUACC [G2U U9G G19A U38A C42A G44A],0
5,GUCAGAGCGCAACACAGCGUUGCAAAGUGGUUGUGGCUAGACUGCC [G2U U9G G21U C31U],0.01
6,GUCAGAGCGCAACACAGCGAGGUACAGUGGCUGUGGAUAGACUGCC [G2U U9G U20A C23U A25C C37A],0.12
7,GUCAGAGCUCAACACAGCGAGGCAAAGUGGCUGAGGCUAGACCGCC [G2U U20A U34A U43C],0.01
8,GUCAGAGCUCAACACAGCGCGCCAAAGUGGCUUUGGCUAGACUGCC [G2U U20C G22C G33U],0
9,GUCAGAGCUCAACACAGCGCGUCAAAGUGGCUGUGACUAGACUGCC [G2U U20C G22U G36A],0.02
10,GUCAGAGCUCAACACAGCGGUGCAAAGUGGCUGUGGCUAGACUGCC [G2U U20G G21U],0.08
11,GUCAGAGCUCAACACAGCGGUGCAAAGUGGAUGUGGCUAGACUGCC [G2U U20G G21U C31A],0.02
12,GUCAGAGCUCAACACAGCGGGGCAAAGUGGCUGCGGCUAGACUGCC [G2U U20G U34C],0.06
13,GUCAGAGCUCAACACAGCGUGGCAAAGUGGCAGUGGCUGGACUGCC [G2U U32A A39G],0
14,GUCAGAGCUCAACACAGCGUGGCAAAGUGGCGGUGGCUAGACUACC [G2U U32G G44A],0.02
15,GUCAGAGCUCAACACAGCGUGGCAAAGUGGCGGUGGCAAGACUGCC [G2U U32G U38A],0.03
16,GUCAGAGCUCAACACAGCGUGGCAAAGUGGCUGUGGCAACACGGCC [G2U U38A G40C U43G],0.03
17,GUCAGAGCUCAACACAGCGUGGCAAAGUGGCUGUGGCCAGAUUGCC [G2U U38C C42U],0.02
18,GGACGAGGUCAACACAGCGCGGCAAAGUGGCUGUGAUCAGACUGCC [C3A A4C C8G U20C G36A C37U U38C],0.02
19,GGACGAGCUCAACACAGCCUGGCAAAGUGGCUGUGGGUAGACUGCC [C3A A4C G19C C37G],0.01

row,Variant,self-cleavage
1,GGACGAGCUCAACACAGCCUGGCAAACUGGCUGUGGCUGGACUGCG [C3A A4C G19C G27C A39G C46G],0.01
2,GGACGAGCUCAACACAGCCUGGCAAAGUGACUGUGCCUAGACUGCC [C3A A4C G19C G30A G36C],0.13
3,GGACGAGCUCAACACAGCUUGGCAAAGUUGCUGUGGCUAGACUGCC [C3A A4C G19U G29U],0.13
4,GGACGAGCUCAACACAGCGUCGCAAAGUGGCUGUGGCUAGACUGCC [C3A A4C G21C],0.05
5,GGACGAGCUCAACACAGCGUUGCAAAGUGGCUGUGGCUAGACCGCC [C3A A4C G21U U43C],0.03
6,GGACGAGCUCAACACAGCGUGGCAAAGUGGCUGUGGCUAGACAGCC [C3A A4C U43A],0.14
7,GGAGGAGCUCAGCACAGCGUCACAAAGGGGCUGUGGCUAGACUGCC [C3A A4G A12G G21C G22A U28G],0.01
8,GGAGGAGCUCAACACAGCGUGGCAACGUGGCUUUGGCUAGACUGCC [C3A A4G A26C G33U],0.04
9,GGAGGAGAUGAACACAGCGUGGCAACGUGGGUGUAGCUAGACUGCC [C3A A4G C8A C10G A26C C31G G35A],0.01
10,GGAGGAGUUCAACACAGCGUGGCAAAGUGGCUGUGGCUAAACUUCC [C3A A4G C8U G40A G44U],0.09
11,GGAGGAGCUCAAAACAGUGUGGCAGAGUGGCUGUGACUAGACUGCC [C3A A4G C13A C18U A25G G36A],0.07
12,GGAGGAGCUCAAUACAGCGGGGCAAAGUGACUGUGGCUAGACUGCC [C3A A4G C13U U20G G30A],0.04
13,GGAGUAGCUCAACACAGCGUGGCAAAGUGGCUGUGGCUAGACUGCC [C3A A4G G5U],0.37
14,GGAGGAGCUCAACACAACGUGGCAAAGUGGCUGUGGCUAGACUCCC [C3A A4G G17A G44C],0.02
15,GGAGGAGCUCAACACAGCGUGGCAAAGUGGCUAUGGCUAGAUUGCC [C3A A4G G33A C42U],0.1
16,GGAUGUGCUCAACACAGCGUGGCAAAGUGGCUGUGGCUAGACUGCC [C3A A4U A6U],0.1
17,GGAUGUGCUAAACACAGUGUGGCAAAGUGAGUGUGGCUAGACUGCC [C3A A4U A6U C10A C18U G30A C31G],0.02
18,GGAUGAGCUCAACACUGCGUGGCAAAGUGGCUGUGGCUAGACUGCC [C3A A4U A16U],0.25
19,GGAUGAGCUCAACACAGCGUGGCUAAGUGGCUGUGGCUAGACUGCC [C3A A4U A24U],1.73

row,Variant,self-cleavage
1,GGAUGAGCUAAACACAGCGUGACAAAGUGGCUGUGGCUAGACAGCC [C3A A4U C10A G22A U43A],0.02
2,GGAUGAGCUCAACAGAGCGUGGCAAAGUGGAUGUGCAUAGACUGCC [C3A A4U C15G C31A G36C C37A],0.02
3,GGAUUAGCUCAACACAGCUUGGCAAAGUGGCAGUGGCUAAACUGCC [C3A A4U G5U G19U U32A G40A],0.01
4,GGAUGAACCCAACACAGCGUGGCAAAGUGGCUGUGGCUAGACUGCC [C3A A4U G7A U9C],0.01
5,GGAUGAGCUCAACACAGCAUAGCAAACUGGCUGUGGCUAGACAGCC [C3A A4U G19A G21A G27C U43A],0.21
6,GGAUGAGCUCAACACAGCGUUGAAAAGUGGCGGUGGGUAGACUGCC [C3A A4U G21U C23A U32G C37G],0.08
7,GGAUGAGCUCAACACAGCGUGGCAAAGUGGCUGUGGCUAGACUUCC [C3A A4U G44U],0.44
8,GGAAGCGCUCAGCACAGCGUGGUAAAGUGGCUGUGGCUAGACUGCC [C3A A6C A12G C23U],0.11
9,GGAAGCGCUCAACACGGCGCGGCAAAGUGGCUGUGGCAAGACUGCC [C3A A6C A16G U20C U38A],0.06
10,GGAAGCGAUCAACACAGCGUAGGAAAGCGGCUGUGGCUAGACUGGC [C3A A6C C8A G21A C23G U28C C45G],0.26
11,GGAAGCGCUCAACAAAGCGUGGCAAAGUGACUGUUGCUAGACUGCC [C3A A6C C15A G30A G35U],0.07
12,GGAAGCCCUCAACACAGCGUGGCAAAGUGGCGGUGGCUAGACUGCC [C3A A6C G7C U32G],0.07
13,GGAAGGGCUCAUCAUUGCGUGGCAAAGUGGAUGUGGCUAGACUGCC [C3A A6G A12U C15U A16U C31A],0.04
14,GGAAGGGCUCAACACUGCGUGGCAAAGUAUCUGUGGCUAGACUGCC [C3A A6G A16U G29A G30U],0.01
15,GGAAGGGCUCAACACAGCGUGGCGAAGUGGCUGUGGCUAGACUGCC [C3A A6G A24G],0.42
16,GGAAGGGCUCAACACAGCGUGGCAAAGUGGGUGUGGCUAGACUGCC [C3A A6G C31G],0.02
17,GGAAGGCCUCAACACAGCGUGGCAAAGUGGCUGUGGCUAGACUGCC [C3A A6G G7C],0.07
18,GGAAGGGCUCAACACAGCGUUGCAAGGUGGCUGUGGCUAGACUGCC [C3A A6G G21U A26G],0.33
